Sequences with one replicate were seen in a single cluster, so their values are uncertain.
Test system: ATP
Assay: switch fluorescence ratio, 500 uM ATP over buffer (Cy3 cluster intensity, sum of 5 cycles each) (fold (ratio)); higher = stronger signal-on switching upon ATP binding; sequences stand for … in TCGTCGGCAGCGTCAGATGTGTATAAGAGACAGTTTTTTTTTTTTTTTTTTTTTTTTT…TC
Conditions: aptamer strand: ATP DNA aptamer (quencher-CACCTGGGGGAGTATTGCGGAGGAAGG + anchor), 100 nM annealed; ATP concentration: 500 uM; one replicate
How it was run: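 Values give the fluorescence ratio for each switch-domain sequence, averaged from per-cluster ratios of summed target-cycle to summed buffer-cycle Cy3 intensity. The Cy3-labelled switching-strand clusters sat on a modified Illumina MiSeq flow-cell, were annealed to 100 nM quencher-labelled ATP aptamer, and were imaged in selection buffer, then after 15 min with 500 uM ATP at 22 °C. Five cycles ran with NaOH stripping and re-annealing between them, and clusters outside 100-1000 RFU were excluded.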
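Further: ATP exposure 15 min at 22 °C before imaging.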

Sequence	switch fluorescence ratio
TCCTTGAACG	0.999
GGTCTCATGA	1.01
GCACCTCCGG	1.02
CATACAGCAA	4.06
ACAGTACA	1.38
AAGGCCTTC	1.04
CTTACACTGA	1.01
ACAACCGGAA	1.38
TTGATTCTGT	1.02
GCAGAATGTA	1.02
CGTTTGATCC	0.973
GGCCGAGTAC	1.04
GCACGCGTAC	2.84
CTCCACGTGT	1.07
CTCCGTTTT	3.28
CTAGTCGCCT	1.02
CATAGTAGAG	1.05
CCAACAAGCT	1.03
ACCGAGGG	1.07
TAGACGCGGT	1.01
ATACACGGCT	1.01
GGGTGTATCA	0.958
AAAGAGGCGA	0.955
TTGATCAAGT	0.985
CGAATAAGGG	0.983

Sequence	switch fluorescence ratio
TCAAGGTAGA	1.01
GCTCCCTACG	1.7
ATATCTGGT	0.944
CGCTACACGT	1.05
ATGCTCTTCG	1.04
TTGCGACTCA	0.966
TGTAATGGAG	0.991
GACGCCCACG	0.99
AGTCTCGCAT	1.17
CAGTTGGTCA	1
AGAAAGAAAG	1.02
CGATTATCAC	0.927
TCGCACGGAA	1.29
GATTGGTCGC	1.07
AAAGGTCAGA	1.02
AATATCGTTA	0.978
TAGGCTTTGC	0.952
AAACGGGGAA	1
TCTTACAAAA	0.952
CAGTAGGGCC	1.05
ACTCCGAGCG	1.72
TAATCTGTAG	1.01
GCCCGGGCGG	0.961
AATTAAGATG	1.06
CGCAGGGGTT	1.18

Sequence	switch fluorescence ratio
CGGGATACGT	1.15
CAAAGGAACG	0.937
TACAGAACAT	1.1
ACGGGTGCTG	0.962
TTATGACTTG	1.01
TTAGTTTCTC	0.954
ACGGATATGT	1.06
TAATACGGCA	1.08
TTCGTGACGG	1.01
CTATCGTGGG	1.06
GTAGCCAAGT	1.03
GAAGTTGGGG	0.951
ACTATACTTG	1.15
GGGGATAGGA	0.998
GAGTGACATC	0.892
AAAATATTAT	1.02
CGTGTGCATT	0.972
TAGCGAGGTA	0.984
CTACTAGCCA	1.05
AGAGGATTTC	0.993
CTAATAGGGA	1
TCTCAATCAG	0.988
CTATCGCTAT	2.17
GTCACAGAC	1.05
TCCCCAGGAA	1.29

Sequence	switch fluorescence ratio
TCTTTCACGA	1.02
ATAGTAGAGA	1.01
CAGGTACCAG	1.03
ACGGGCCGTG	0.99
TTGGGCATGT	1
GCGAAAATGA	1.02
GCTCTTCGCG	1.01
CTTGATCAGA	1.02
GCCCTTCGGT	1.02
AGACAGTCAT	0.976
AAATCATG	1.03
TCATCATTTC	1.01
ATGGTACATA	0.994
CATCCTGGCA	1.46
CACGCACGCC	1.8
CAATGTTGAA	1.04
GGTATCCACG	1.05
TTGGCGGTGT	1.04
CGATAAGGTT	0.963
GACCTATGGG	1.11
GGGGGATCCA	0.953
ATCAAGAGAA	0.995
TGTCGGGAGC	1
AAAAAGCGGC	1.02
TAGCTGGTAT	0.975

Source: the supplement of paper PMC10126150
